# Assay results: PubChem BioAssay AID463173 (ICCB-Longwood Screening Facility, Harvard Medical School, 2010)
# Screen size: about 52,000 compounds; about 4,300 (8.3%) were called active. Cut-off read from the data, not from the text of the source: active = survival mostly below about 52% (no sharp cut-off); inactive = mostly above about 56%. This is one part of the list.
# System: DeltatarO mutant
# Assay: S. aureus survival, RN4220 and DeltatarO strains – OD600, teichoic acid synthesis inhibitors, primary screen (AID 463173)
# Conditions: S. aureus RN4220 wild type/DeltatarO growth, OD600, 18 h, active compounds read low, screened at 18.75 µg/mL (by protocol)
row,Compound,survival
1,COc1ccccc1NC(=O)c1oc2ccccc2c1NC(=O)COc1cccc(C)c1,inactive: 72%
2,Cc1ccc2oc(-c3ccc(C)c(NC(=O)C(C)(C)Oc4ccc(Cl)cc4)c3)nc2c1,active: 13%
3,CC1=C(C(=O)OCC2CCCCC2)C(c2ccc(Cl)cc2)CC(=O)N1 (centres undefined),inactive: 96%
4,O=C1N(Cc2ccccc2Cl)c2ccccc2C1(O)c1c[nH]c2ccccc12 (centres undefined),inactive: 64%
5,CC1(C)N=C(SCc2ccccc2Cl)c2ccccc2N1,inactive: 105%
6,Cc1ccc(S(=O)(=O)c2nnn3c2nc(NC(C)C)c2cc(Cl)ccc23)cc1C,inactive: 97%
7,CC1(C)N=C2C(=[N+]1[O-])CCC/C2=N/O,inactive: 95%
8,CCCCNC(=O)CSc1nc2n[nH]c(C)c2c(=N)n1-c1cccc(Cl)c1C,inactive: 124%
9,Cc1cccc(-c2noc(-c3cccnc3NCc3ccc(Cl)cc3)n2)c1,inactive: 73%
10,COc1ccc(S(=O)(=O)Nc2ccc3oc4c(c3c2)CCCC4)cc1,active: 27%
11,O=S(=O)(c1ccccc1)N1CCCC(C(F)(F)F)C1 (centres undefined),inactive: 100%
12,COc1ccc2c(c1)sc1ncc(C(=O)NCc3ccccc3F)c(=O)n12,inactive: 101%
13,O=C(OC(C(=O)NCc1ccc2c(c1)OCO2)c1ccccc1F)c1ccco1 (centres undefined),inactive: 86%
14,CCN(CC)CN1C(=O)C2C3c4ccccc4C(c4ccccc43)C2C1=O (centres undefined),inactive: 80%
15,Cc1sc2ncn(CC(=O)Nc3ccc(C(C)C)cc3)c(=O)c2c1S(=O)(=O)N1CCN(c2ncccn2)CC1,inactive: 59%
16,COc1ccc(S(=O)(=O)N2CCC(C(=O)Nc3ccccc3)CC2)cc1OC,inactive: 63%
17,CCOC(=O)c1c(C)[nH]c(C)c1S(=O)(=O)NCC(=O)Nc1cccc(C#N)c1,inactive: 128%
18,COc1cc(OC)cc(N2C(=O)N(Cc3ccc(C(C)(C)C)cc3)c3ccccc3S2(=O)=O)c1,inactive: 76%
19,Cc1nn(-c2ccc(N3CCCCC3)nn2)c(C)c1CCC(=O)Nc1ccc(F)cc1F,inactive: 124%
20,COC(=O)c1scc(-c2ccc(C)cc2)c1S(=O)(=O)N1CCN(c2ccccc2)CC1,inactive: 72%
21,O=C(CCSCc1cccc(Cl)c1)N1CCN(c2ccc(Cl)cc2)CC1,inactive: 85%
22,Cc1ccccc1C(=O)N1CC(=O)Nc2ccc(Cl)cc2C1c1ccccc1 (centres undefined),inactive: 58%
23,O=C(c1cccc(Cl)c1)N1c2nc(-c3ccco3)nn2C2(CCCCC2)[C@@H]2CCCC[C@@H]21,inactive: 60%

row,Compound,survival
1,CCOc1ccc(NS(=O)(=O)c2ccc(C(=O)N(C)C)s2)cc1,inactive: 76%
2,C#CCn1c(=NC(=O)c2ccc3c(c2)OCCO3)sc2cc(OC)c(OC)cc21,inactive: 102%
3,COc1ccc(CCNC(=O)CCCCn2c(=O)c3ccccc3n(CC(=O)Nc3c(C)cccc3C)c2=O)cc1OC,inactive: 115%
4,O=C(O)C1C2CCCCC21 (centres undefined),inactive: 71%
5,Cc1cc(C)cc(NC(=O)CSc2nc(=O)n(CCN3CCOCC3)c3c2CCC3)c1,inactive: 78%
6,COC(=O)c1c(NC(=O)Cc2coc3cc(C)ccc23)sc2c1CCC2,inactive: 98%
7,O=C(NCc1cccs1)c1ccc2c(c1)N(Cc1cccc(F)c1)C(=O)c1ccccc1S2,inactive: 85%
8,CCOC(=O)c1noc2nc(C)n(CC(=O)NC(C)CC)c(=O)c12 (centres undefined),inactive: 126%
9,CC1(C)C/C(=N\O)C(C(O)c2ccccc2)C(C)(C)N1 (centres undefined),inactive: 90%
10,Nc1c(C(=O)Nc2ccccc2Cl)c2ccccn2c1C(=O)c1ccccc1,inactive: 66%
11,CCOc1ccc(NC(=O)c2c(NCc3cccc(OC)c3OC)sc3c2CCC3)cc1,inactive: 75%
12,CCc1ccc(NC(=O)CN(c2ccc(Cl)cc2)S(=O)(=O)c2ccsc2C(=O)OC)cc1,inactive: 134%
13,O=C(C1CCCN(S(=O)(=O)c2cccc3nsnc23)C1)N1CCN(c2ccccc2)CC1 (centres undefined),inactive: 79%
14,COc1ccc(OC)c(CNC(=O)c2ccc3c(c2)c(C)c(C)n3Cc2ccc(Cl)cc2)c1,inactive: 89%
15,CCOC(=O)N1CCN(C(=O)CN(c2ccccc2F)S(=O)(=O)c2ccc(C)cc2)CC1,inactive: 55%
16,Cc1cc(N2CCC(C)CC2)nc2ccc(NC(=O)Cc3c(F)cccc3Cl)cc12,inactive: 56%
17,Cc1ccc(Cn2cc(S(=O)(=O)c3cccc(Cl)c3)c(=O)c3cc(F)c(N4CCCCC4)cc32)cc1,inactive: 78%
18,O=C(NCCc1ccccc1Cl)C1CCN(c2nc3ccccc3nc2C(F)(F)F)CC1,active: 37%
19,CC1(C)O[C@H]2[C@@H](O1)[C@@H](C(=O)Nc1ccccc1C(F)(F)F)O[C@@H]1OC(C)(C)O[C@@H]12,inactive: 106%
20,COc1ccc(-n2c(-c3ccco3)nc3c(cnn3-c3ccc(Cl)cc3)c2=O)cc1,inactive: 78%
21,O=C(CSc1ccc(-c2cccs2)nn1)Nc1ccccc1C(F)(F)F,inactive: 70%
22,Cc1ccc(NC(=O)C2CCCN(C(=O)c3cnn(-c4ccc(F)cc4)c3-n3cccc3)C2)c(Cl)c1 (centres undefined),inactive: 87%
23,Cc1ccccc1CNC(=O)C(C)N(c1ccccc1)S(C)(=O)=O (centres undefined),inactive: 69%

row,Compound,survival
1,C#CCNC(=O)NC1CCCN(S(=O)(=O)c2ccc(C)cc2)C1 (centres undefined),inactive: 100%
2,O=C(CCC1N=C2c3ccccc3N=C(SCc3ccc(F)cc3)N2C1=O)NCCc1ccccc1 (centres undefined),inactive: 89%
3,CCOc1ccc(/C=C/c2nc(C#N)c(NCc3ccccc3)o2)cc1,inactive: 66%
4,COc1ccc(Cl)cc1NC(=O)C(C)Sc1nc2c(c(=O)[nH]1)CCCC2 (centres undefined),inactive: 53%
5,CC(=O)c1cccc(NC(=O)CSc2nc(=O)n(Cc3ccco3)c3c2CCC3)c1,inactive: 83%
6,CCOc1ccccc1CNC(=O)c1ccc2c(c1)N(Cc1ccc(C)cc1)CCS2,inactive: 76%
7,Cc1cc(C)n(C(=O)CCCC(=O)O)n1,inactive: 74%
8,CCCCN(CC)C(=O)c1nn(C)c2c1CSc1ccccc1-2,inactive: 103%
9,Cc1oc(-c2cccc(Cl)c2)nc1CS(=O)(=O)CC(=O)NC(C)CCc1ccccc1 (centres undefined),active: 32%
10,Cc1nc2scc(C)n2c(=O)c1S(=O)(=O)NCCc1ccccc1,inactive: 138%
11,Cc1cc(C)cc(N2C(=O)N(Cc3cccc(F)c3)c3ccccc3S2(=O)=O)c1,inactive: 82%
12,COc1ccc(N2CCN(C(=O)CSc3n[nH]c(-c4ccccc4Cl)n3)CC2)cc1,inactive: 81%
13,COc1ccc(Nc2oc(-c3ccc(COc4ccccc4C)o3)nc2C#N)cc1,inactive: 59%
14,Cc1cc(C)c(NC(=O)C(C)n2nnc3sc4c(c3c2=O)CCCC4)c(C)c1 (centres undefined),inactive: 81%
15,Cc1ccc(C)c(CN2C(=O)c3ccccc3S(=O)(=O)c3ccc(C(=O)NCCC4=CCCCC4)cc32)c1,inactive: 58%
16,CCN(C(=O)c1cc2c(=O)oc3ccc(C)cc3c2s1)c1ccccc1C,inactive: 63%
17,CCN(CC)S(=O)(=O)c1ccc2nc(NC(=O)c3cncc(Br)c3)sc2c1,inactive: 80%
18,Cc1cccn2c(=O)c(C(=O)NC(C)c3ccccc3)cnc12 (centres undefined),inactive: 70%
19,Cc1ccc(OCc2nc(-c3ccc(C(=O)NCc4ccc(OC(C)C)cc4)cc3)oc2C)cc1,inactive: 91%
20,Cc1ccc(NC(=O)C2CCN(c3nn4cc(-c5ccc(C)cc5)nc4s3)CC2)cc1,inactive: 67%
21,CCCCCn1c(=O)[nH]c2cc(C(=O)N3CCN(c4cccc(C(F)(F)F)c4)CC3)ccc2c1=O,inactive: 66%
22,Cc1ccc(CNC(=O)CNS(=O)(=O)c2cccs2)cc1,inactive: 80%
23,COc1ccc(CNC(=O)c2oc3c(c2C)-c2nn(Cc4ccc(Cl)cc4)cc2CC3)cc1,inactive: 63%

row,Compound,survival
1,CC(C)(C)c1ccc(C(=O)Nc2sc3c(c2C#N)CCC(C(C)(C)C)C3)cc1 (centres undefined),inactive: 56%
2,O=C(Nc1ccc(Br)cc1)C1CCCN1S(=O)(=O)c1ccc(F)cc1 (centres undefined),inactive: 66%
3,CCOc1ccc(NC(=O)Cn2c(=O)n(CC(=O)NCc3ccccc3Cl)c(=O)c3sccc32)cc1,inactive: 157%
4,CCc1ccccc1NC(=O)Nc1nnc(N(CC)c2ccccc2)s1,inactive: 76%
5,Cc1cc(NC(=O)CN2C(=O)c3cccnc3Sc3ccccc32)ccc1Br,inactive: 80%
6,c1cc2cc(C3=NCCN3)ccc2cc1C1=NCCN1,inactive: 85%
7,COc1ccc(OC)c2sc(N(Cc3cccnc3)C(=O)c3ccco3)nc12,inactive: 88%
8,Cc1ccc(CNC(=O)c2cc(-c3ccc(Cl)cc3)on2)cc1,inactive: 93%
9,Cc1ccc2oc(=O)c(S(=O)(=O)c3ccc(C(C)(C)C)cc3)cc2c1,inactive: 92%
10,CCCNC(=O)N(C)c1ncnnc1NC,inactive: 98%
11,Cc1nc2ccn(Cc3cccnc3)c(=O)c2cc1C(=O)N1CCN(c2ccc(F)cc2)CC1,inactive: 115%
12,COC(=O)c1ccccc1NC(=O)c1cnc2c(-c3cccc(C)c3)c(C)nn2c1C,inactive: 128%
13,Cc1cc(NC(=O)Cc2ccccc2)no1,inactive: 75%
14,C=CCN1C(=O)CN=C1Nc1ccccc1,inactive: 88%
15,CN(C)CCNc1oc(-c2ccc(COc3ccc(Cl)cc3)o2)nc1C#N,inactive: 88%
16,CCc1ccc(C(=O)c2cn(Cc3ccc(F)cc3)c3cc(OC)c(OC)cc3c2=O)cc1,inactive: 58%
17,Cc1cc(C)cc(Oc2nc3c(C)cccn3c(=O)c2/C=C(\C#N)c2nc3ccccc3s2)c1,inactive: 131%
18,COc1ccc(CCNC(=O)C(C)n2c(=O)cc(C(F)(F)F)c3c(C)nn(C)c32)cc1OC (centres undefined),inactive: 89%
19,COc1ccc(N2CCN(Cc3nnc(-c4cccc(Br)c4)o3)CC2)cc1,inactive: 77%
20,CCS(=O)(=O)N1CC(=O)N(c2ccc(Cl)cc2)C(C)(C(=O)NC2CCCCCC2)C1 (centres undefined),inactive: 115%
